Measurements: PubChem BioAssay AID1030 (National Center for Advancing Translational Sciences (NCATS), 2008)
The campaign covered roughly 220,000 compounds. About 16,000 (7.3%) were called active. Inconclusive results, whose numbers are uncertain, are shown with a selection of clear calls. Calls come from the whole dose curve; as a rule, active = well fitted inhibition curve with a large enough effect (not every such curve was filed as active); inconclusive = small, poorly fitted or top-dose-only effect, or another doubt; inactive = no such curve, though single readings can be large or run the other way. No potency is given beside an inconclusive call; the fits are too rough.

biological target: Aldehyde dehydrogenase 1A1 (Homo sapiens) (UniProt P00352); assay: qHTS Assay for Inhibitors of Aldehyde Dehydrogenase 1 (ALDH1A1); settings: Purified ALDH1A1, NADH fluorescence, propionaldehyde substrate; series mostly up to 75.3 µM; activity, negative = inhibition: at the top concentration;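 for activity, negative = inhibition: plate controls were no enzyme wells and a reference inhibitor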
Chain of UniProt P00352 (P00352 whole entry, looked up): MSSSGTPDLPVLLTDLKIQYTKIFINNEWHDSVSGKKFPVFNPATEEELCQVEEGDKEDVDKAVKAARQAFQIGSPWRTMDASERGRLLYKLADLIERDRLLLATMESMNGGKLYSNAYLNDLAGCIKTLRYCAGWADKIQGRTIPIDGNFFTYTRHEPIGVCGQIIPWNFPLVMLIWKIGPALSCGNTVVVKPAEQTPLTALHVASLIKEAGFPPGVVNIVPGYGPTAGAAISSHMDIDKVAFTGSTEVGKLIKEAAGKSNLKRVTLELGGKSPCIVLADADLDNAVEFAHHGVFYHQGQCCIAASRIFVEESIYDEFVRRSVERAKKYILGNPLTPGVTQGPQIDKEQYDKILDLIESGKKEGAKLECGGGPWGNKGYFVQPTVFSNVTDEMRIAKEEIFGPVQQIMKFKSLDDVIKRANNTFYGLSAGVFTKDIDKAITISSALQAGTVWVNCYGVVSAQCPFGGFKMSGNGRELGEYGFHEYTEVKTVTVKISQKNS
Potency is the fitted concentration of half-maximal effect; tags give direction and shape of the fitted curve.

Row | Compound | Potency | activity, negative = inhibition
1 | COC(=O)c1c(-n2c(C)cc(C=O)c2C)sc2c1CCCC2 | inconclusive [inhibitor, partial curve] | 
2 | C=CCN1C(=O)/C(=C/c2ccc(OC)cc2)S/C1=N/c1nccs1 | inconclusive [inhibitor, full curve] | 
3 | S=c1[nH]nc(-c2ccco2)n1C1CCCCC1 | inconclusive [inhibitor, single point] | 
4 | CC(C)C(c1nnnn1C1CCCC1)N1CCCc2ccccc21 (centres undefined) | inconclusive [inhibitor, single point] | 
5 | O=C(COC(=O)c1cc[n+]([O-])cc1)Nc1ccc(F)c([N+](=O)[O-])c1 | inconclusive [inhibitor, single point] | 
6 | O=C(NCC1OCCc2ccccc21)c1cc(COc2c(F)cccc2F)on1 (centres undefined) | inconclusive [inhibitor, single point] | 
7 | O=C(Oc1ccc2ccc(=O)oc2c1)c1cccs1 | inconclusive [inhibitor, partial curve] | 
8 | Cc1c(C)c2c(c(C)c1O)CCC(C)(COc1ccc(Cc3sc(=O)[nH]c3O)cc1)O2 (centres undefined) |  | inactive: 8.16%
9 | C=C(C)COc1ccc2c(CC)cc(=O)oc2c1C | inconclusive [inhibitor, single point] | 
10 | C=CCc1ccccc1OCCSc1nc2ccc([N+](=O)[O-])cc2s1 | inconclusive [inhibitor, single point] | 
11 | CCN1CCN(C(=S)c2ccc(OCC(=O)NCc3ccccc3)cc2)CC1 | inconclusive [inhibitor, single point] | 
12 | COc1ccc(NCc2nnc(SCC(=O)Nc3nc(-c4ccccc4)cs3)n2-c2ccccc2)cc1 | inconclusive [inhibitor, full curve] | 
13 | O=C(NCCCN1CCCCCC1)c1ccc2c(c1)NC(=O)C(N1CCOCC1)S2 (centres undefined) | inconclusive [inhibitor, single point] | 
14 | CN(C)S(=O)(=O)c1cc(NC(=O)CSc2ncc(C(F)(F)F)cc2Cl)ccc1Cl | inconclusive [inhibitor, single point] | 
15 | Cc1ccc(/C=N\Nc2nc3ccc(Cl)cc3[nH]2)o1 |  | inactive: -1.27%
16 | Cc1ccccc1/C=N\NC(=O)c1csnn1 |  | inactive: -1.78%
17 | CCc1cccc(C)c1NC(=O)CSc1nnc(CCCOc2ccc(Cl)cc2Cl)n1C |  | inactive: 11.2%
18 | CO/N=C(\C(=O)NC1C(=O)N2C(C(=O)OCOC(=O)C(C)(C)C)=C(/C=C\c3scnc3C)CSC12)c1csc(N)n1 (centres undefined) | active: 0.355 µM | 
19 | O=C(/C=C/c1ccccc1)NC(NC(=S)Nc1ccc(C(=O)O)cc1)C(Cl)(Cl)Cl (centres undefined) | inconclusive [inhibitor, single point] | 
20 | COc1ccc2c(C)cc3n[nH]c(=S)n3c2c1 | inconclusive [inhibitor, partial curve] | 
21 | Cc1ccc(S(=O)(=O)N[C@H](CN)C(=O)O)cc1 |  | inactive: 5.87% [at 13.5 µM]
22 | O=C1OC(c2ccccc2)=C/C1=C/N1CCOCC1 | active: 7.94 µM | 
23 | COc1ccc(CCC(=O)c2c(O)cc(OC3OC(CO)C(O)C(O)C3O[C@@H]3OC(C)C(O)C(O)C3O)cc2O)cc1O (some centres undefined) | inconclusive [inhibitor, single point] | 
24 | CCOc1ccc(CN(C)C(=O)CCl)cc1 | active: 0.0501 µM | 
25 | Cc1ccc(-c2cc(C(=O)N/N=C/C=C/c3ccco3)c3ccccc3n2)cc1C | inconclusive [inhibitor, single point] | 

Row | Compound | Potency | activity, negative = inhibition
26 | C/C(N)=C(/C#N)C(=O)COC(=O)c1cc(-c2ccc(C)cc2)nc2ccccc12 | inconclusive [inhibitor, partial curve] | 
27 | C/C(=N\NC(=O)c1ccc([N+](=O)[O-])cc1Cl)c1ccccc1 | inconclusive [inhibitor, single point] | 
28 | Cc1cccc(NC(=O)Cc2ccc(F)cc2)c1 | inconclusive [inhibitor, single point] | 
29 | CCOC(=O)c1[nH]c(C)c(C(=O)NCc2ccc(Cl)cc2)c1C |  | inactive: -4.51%
30 | COC(=O)c1coc(-c2ccc(C)cc2)c1C(=O)OC | active: 22.4 µM | 
31 | CN(C)c1cccc(C(=O)NCc2ccccc2)c1 | inconclusive [inhibitor, single point] | 
32 | O=C(CSc1nnc(Nc2ccccc2F)s1)c1cc2ccccc2o1 | inconclusive [inhibitor, single point] | 
33 | N#C/C(=C\Nc1ccc2c(c1)OCCO2)c1nc2ccccc2[nH]1 |  | inactive: 13.4%
34 | C=CCc1ccccc1OCC(O)CN1CCN(c2ccccc2OC)CC1 (centres undefined) | inconclusive [inhibitor, single point] | 
35 | CN(C)CC(=O)Nc1nc(-c2ccccc2)cs1 |  | inactive: -1.54%
36 | CN(C)c1ccc(C(=O)Nc2nnc(-c3ccc(Cl)cc3)o2)cc1 | inconclusive [inhibitor, partial curve] | 
37 | COc1ccc(-n2nc3cc(C)c(NC(C)=O)cc3n2)cc1 | inconclusive [inhibitor, partial curve] | 
38 | COc1cccc(Cn2c(=O)c(-c3ccccc3)nc3cnc(N4CCN(C)CC4)nc32)c1 | inconclusive [inhibitor, single point] | 
39 | COc1ccc(Br)cc1-c1nc(CCl)cs1 | inconclusive [inhibitor, single point] | 
40 | COCCNCCOc1ccc(C)cc1[N+](=O)[O-] |  | inactive: -92.7%
41 | CCn1c(SCC(=O)NCC(=O)Nc2ccc(F)cc2)nnc1-c1ccncc1 | inconclusive [inhibitor, single point] | 
42 | CCOC(=O)C(=Cc1ccc(-c2ccsc2C(=O)OC)o1)C(=O)OCC | inconclusive [inhibitor, single point] | 
43 | O=C(CN1CCN(S(=O)(=O)c2ccccc2F)CC1)NC1CCCC1 | inconclusive [inhibitor, partial curve] | 
44 | C=CCOc1c(CNc2cccc(C(=O)O)c2)cccc1OCC | inconclusive [inhibitor, single point] | 
45 | O=C(NNC(=S)NCC1CCCO1)c1cccc(S(=O)(=O)N2CCOCC2)c1 (centres undefined) | inconclusive [inhibitor, single point] | 
46 | Cc1ccc(S(=O)(=O)c2ccc(-n3nc(C)cc3N)cc2)cc1 |  | inactive: 6.2%
47 | COc1ccc(-c2nc(C#N)c(N3CCCCCC3)o2)cc1OC | inconclusive [inhibitor, partial curve] | 
48 | O=C1OC(c2ccccc2)/C(=C(/O)c2ccccc2)C1=O (centres undefined) | active: 0.794 µM | 
49 | Cn1c(-c2sc(=S)n(-c3ccccc3)c2N)nc2ccccc21 | inconclusive [inhibitor, single point] | 
50 | Nc1nc2ccc(-c3nc4ccccc4o3)cc2s1 | inconclusive [inhibitor, partial curve] | 

Row | Compound | Potency | activity, negative = inhibition
51 | CCOC(=O)c1sc(-c2cccs2)nc1C | inconclusive [inhibitor, partial curve] | 
52 | Cc1oc(C(C)(C)C)cc1C(=O)N1CCN(c2ccc(C(F)(F)F)cn2)CC1 | inconclusive [inhibitor, single point] | 
53 | O=C(CSc1nc2ccccc2n1Cc1ccccc1)N/N=C/c1ccco1 |  | inactive: -1.3%
54 | Cc1ccc2c(c1)nnn2C1CCN(C(=O)C2CCCCC2)CC1 | active: 7.94 µM | 
55 | CSc1cccc(NC(=O)c2cnn3ccccc23)c1 | inconclusive [inhibitor, single point] | 
56 | Cn1c(SCC(=O)NCc2cccs2)nnc1-c1cccs1 |  | inactive: 4.71%
57 | COc1ccccc1-c1ccc(NC2CCCC2)nn1 |  | inactive: -0.0775%
58 | Cc1ccc(/C=C/c2ccc(=O)n(Cc3ccc(Cl)cc3Cl)n2)cc1 | inconclusive [inhibitor, partial curve] | 
59 | Cc1cc(C)cc(CSCC(=O)NN=C2CCCCCC2)c1 | inconclusive [inhibitor, single point] | 
60 | COc1ccc2c(c1)NC(C)(C)C=C2C | inconclusive [inhibitor, single point] | 
61 | Cc1cccc2cccnc12 |  | inactive: 2.22%
62 | CC(=O)O[C@](C)(CCC=C(C)C)C1CC=C(C)CC1 (some centres undefined) |  | inactive: -0.285%
63 | CC(C)OC(=O)CSc1nnc(-c2ccncc2)n1N |  | inactive: 4.53%
64 | c1ccc(CCNc2c3c(nc4ncnn24)CCC3)cc1 | active: 3.55 µM | 
65 | Cc1cc(=O)oc2ccc(OC(C)C(=O)O)cc12 (centres undefined) | inconclusive [inhibitor, partial curve] | 
66 | Cc1ccc(S(=O)(=O)N2CCC(C(=O)N3CCC[C@H]3C(=O)NCc3ccco3)CC2)cc1 | inconclusive [inhibitor, single point] | 
67 | COc1ccc(S(=O)(=O)C(C#N)c2nc3ccccc3nc2N2CCCC(C)C2)cc1 (centres undefined) | inconclusive [inhibitor, partial curve] | 
68 | COc1ccc(-c2nnn(CC(=O)N(CCCN3CCOCC3)C(C(=O)NC3CCCC3)c3ccc(C)o3)n2)cc1 (centres undefined) |  | inactive: 5.08%
69 | Cc1cc(-c2csc(NCc3ccccc3)n2)c(C)n1C | active: 20 µM | 
70 | COc1ccc(NC(=O)CC2SC(N)=NC2=O)c([N+](=O)[O-])c1 (centres undefined) | active: 25.1 µM | 
71 | CC(C)CN(CC(C)C)c1ccc(/C=N/n2cnnc2)cc1[N+](=O)[O-] | inconclusive [inhibitor, single point] | 
72 | Cc1nc2ccc(NS(=O)(=O)c3ccc(C)c(C)c3)cc2s1 |  | inactive: -6.71%
73 | COc1ccc(C(=O)Nc2cc(C(=O)c3ccccc3)c(C)oc2=O)cc1 | active: 20 µM | 
74 | Cc1cccn2c(=O)c3cc(C(=O)NCc4ccco4)c(=N)n(CCOCCO)c3nc12 | inconclusive [inhibitor, partial curve] | 
